# The supplement of paper PMC7826260
# The other results are listed elsewhere or left out. Each Rep nickase domain was tested in vitro on the same pool of single strands (1 h at 37 °C, 3 µM enzyme); the outer parts of the 90-letter strands are left off. Values are log2 of uncut reads against the no-enzyme pool; the lower, the more was cut; hits are not called. Shares of all reads are compared; where an enzyme cuts many sequences, the uncut ones exceed 0.
# Test system: T1, Rep nickase domain of Muscovy duck circovirus
# T1 sequence (residues 1-111 of Rep, tag left off): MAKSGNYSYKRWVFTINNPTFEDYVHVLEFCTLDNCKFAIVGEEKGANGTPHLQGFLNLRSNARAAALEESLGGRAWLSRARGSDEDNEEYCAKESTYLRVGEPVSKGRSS
# Assay: uncleaved DNA left, log2 of reads against the no-enzyme library (log2 ratio); higher = less cleavage (more negative = more Rep cleavage of the k-mer); sequences stand for … in CTCGTCCG…ACCGGAGA
# Experimental: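 A pool of 90-nt single-stranded DNAs with seven random bases just before the constant AC of the nick site (name = the seven bases) was cut by 3 µM recombinant His6-SUMO-tagged Rep nickase domain (300 nM DNA, 50 mM HEPES pH 8.0, 50 mM NaCl, 1 mM MnCl2, 1 h, 37 °C, three replicates). Uncut DNA was amplified and sequenced.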
row,Sequence,uncleaved DNA left (log2)
1,CAGCAGG,0.00399
2,GGCGATT,0.068
3,TTGTAGG,0.114
4,ATCTCCT,-0.179
5,AATTTCT,-4.03
6,TTAGCTA,0.106
7,CTTCTGT,-0.000254
8,GTAAGCA,-0.0126
9,GGATTTG,-0.0452
10,ACACGCG,0.00717
11,TGTCCAC,0.0172
12,CTATTGG,0.0784
13,CTTGAAA,0.0122
14,GAATCGG,0.134
15,CTCAGCT,-0.0199
16,ATCGTAG,0.133
17,AATGATA,0.0313
18,GGCAAGG,0.181
19,AACCTGC,-0.0687
20,GTCAGCT,-0.0242

row,Sequence,uncleaved DNA left (log2)
1,TGGTCTC,-0.00344
2,CCATGGG,0.0403
3,AGGGATG,-0.0173
4,ATGAATA,-0.0414
5,TGTGTTC,0.139
6,CTGGTCG,-0.0834
7,ATAGAAT,0.129
8,ATAAATA,0.17
9,ATCTCGG,-0.0114
10,GCATCAG,0.0868
11,GAATCCT,-1.62
12,GCATCCA,-0.0191
13,TGGAAAA,0.214
14,GTGGCAG,0.116
15,TAGCTGA,0.175
16,CTAATTC,-0.106
17,TGAGTAT,0.0963
18,CGGCCCT,-0.0292
19,TTGGGCT,0.0468
20,GCAGCGT,0.0357
